Whole data set: some 33,000 sequences, median “E-score (-0.5 to 0.5)” near -0.054, cut for the highest 2% near 0.35. Some of the results follow.

This experiment has as its target T1, Stb5 (UniProt P38699).
T1 sequence: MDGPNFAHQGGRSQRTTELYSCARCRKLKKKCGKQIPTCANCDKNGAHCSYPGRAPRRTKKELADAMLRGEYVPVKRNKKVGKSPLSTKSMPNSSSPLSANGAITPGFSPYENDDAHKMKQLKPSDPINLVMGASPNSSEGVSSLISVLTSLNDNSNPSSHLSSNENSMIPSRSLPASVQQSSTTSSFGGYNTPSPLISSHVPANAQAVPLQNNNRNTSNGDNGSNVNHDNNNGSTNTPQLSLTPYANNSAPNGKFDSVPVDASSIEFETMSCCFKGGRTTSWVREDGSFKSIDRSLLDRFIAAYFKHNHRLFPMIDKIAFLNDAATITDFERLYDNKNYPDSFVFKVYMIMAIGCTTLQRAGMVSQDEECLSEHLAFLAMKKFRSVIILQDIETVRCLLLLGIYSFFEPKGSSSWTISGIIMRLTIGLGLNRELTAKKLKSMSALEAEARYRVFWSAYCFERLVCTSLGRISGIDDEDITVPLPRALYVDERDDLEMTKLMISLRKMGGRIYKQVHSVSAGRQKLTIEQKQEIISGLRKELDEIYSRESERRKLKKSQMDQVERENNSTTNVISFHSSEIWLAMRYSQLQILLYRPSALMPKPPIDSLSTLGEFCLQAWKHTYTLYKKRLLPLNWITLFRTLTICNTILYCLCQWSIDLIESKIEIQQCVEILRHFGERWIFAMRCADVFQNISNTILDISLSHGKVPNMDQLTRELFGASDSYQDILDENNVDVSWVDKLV
The experiment can be described thus: PBM E-score (8-mer binding enrichment) (E-score (-0.5 to 0.5)); higher = stronger / more preferred TF binding; most listed sequences are background and not binding sites. The following applies: protein concentration: 200 nM; construct: GST-full length. The method in brief: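 Universal all-10-mer Agilent arrays, double-stranded by primer extension on fresh or once-stripped slides, were probed with about 100-200 nM GST-tagged yeast transcription factors made by PURExpress. Fluorescent anti-GST detected bound protein, and masliner normalised the scans. E-scores from the Universal PBM Analysis Suite were given to each ungapped eight-base word pooled with its reverse complement.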
As for GCGCCCGA, the “PBM E-score” value worked out at 0.177.

As to AGTTTTAG, the “PBM E-score” value is 0.00564.

Consider GTTACTTA, for which the “PBM E-score” value is 0.0421.

Consider AAGACGCA, for which the “PBM E-score” value was -0.0754.

CACCAGAG: the “PBM E-score” value is -0.323.

Turning to TAGCGACA, the “PBM E-score” value is -0.139.

Regarding AAATAAGG, the “PBM E-score” value is -0.0269.

As to AGCTCCAC, the “PBM E-score” value came to 0.0464.

For the sequence ACACGATG, the “PBM E-score” value is -0.258.

Turning to AGGAAGAC, the “PBM E-score” value was -0.132.

Regarding GCATTAAC, the “PBM E-score” value was 0.138.

ATCGGCGC: the “PBM E-score” value was determined as 0.291.

Consider ACGCCTCA, for which the “PBM E-score” value was -0.328.

Regarding GGTATAAC, the “PBM E-score” value was 0.192.

Consider ATCACAAT, for which the “PBM E-score” value is -0.14.

As for CACGGAAA, the “PBM E-score” value was found to be 0.0619.

Take TAGATGGA: the “PBM E-score” value is -0.124.

With GAGTCCGC, the “PBM E-score” value is 0.371.

On to GTAGAATA, for which the “PBM E-score” value was -0.0512.

Turning to GGACGCAC, the “PBM E-score” value stood at 0.0749.

CTAGCAAC: the “PBM E-score” value came to 0.0401.

In the case of ACGTGACG, the “PBM E-score” value was -0.0173.

Consider TCCACGCA, for which the “PBM E-score” value is -0.0145.

As to GTATCGGA, the “PBM E-score” value was found to be 0.263.

Take ACACGAAT: the “PBM E-score” value is -0.0603.

Regarding CAGCTCGG, the “PBM E-score” value was 0.0984.

AACCTAAT: the “PBM E-score” value was -0.0428.

Consider AAGCCAGA, for which the “PBM E-score” value was -0.169.

As to AATATGAA, the “PBM E-score” value amounted to 0.00094.

As to CTGCCTGA, the “PBM E-score” value was -0.0444.

With ACTACCGA, the “PBM E-score” value was determined as 0.305.

As for ATTCCGCG, the “PBM E-score” value stood at 0.156.

With CTCCAGAG, the “PBM E-score” value was -0.057.

Turning to GTGACATA, the “PBM E-score” value amounted to 0.0552.

With AGGACTGG, the “PBM E-score” value is -0.338.

Turning to CCTCCTAG, the “PBM E-score” value is -0.267.

For the sequence GGGTGTAA, the “PBM E-score” value was found to be 0.251.

ACCAAGGG: the “PBM E-score” value was -0.0724.

Consider AATTCAAA, for which the “PBM E-score” value is -0.185.

Take ATAGTCAA: the “PBM E-score” value was -0.138.

For GGTCGCGA, the “PBM E-score” value is -0.0386.

For AGGGTGCC, the “PBM E-score” value was -0.154.

With ACGGACAT, the “PBM E-score” value stood at 0.41.

Regarding AGCAGACA, the “PBM E-score” value is -0.246.

With CACAAAGG, the “PBM E-score” value was -0.164.

As to CCCAGTCC, the “PBM E-score” value was -0.0375.

With CCACAGCC, the “PBM E-score” value is -0.196.

Turning to CCCACTGA, the “PBM E-score” value was -0.257.

For the sequence CTACCTAA, the “PBM E-score” value is -0.0868.

With GGAATGTA, the “PBM E-score” value is -0.0691.

In the case of GACTCTGC, the “PBM E-score” value is -0.247.

For AAAACTAC, the “PBM E-score” value came to 0.0614.

With AGCTGGAC, the “PBM E-score” value is -0.157.

In the case of CTTTGGCA, the “PBM E-score” value was -0.23.

For the sequence GGGCCAAC, the “PBM E-score” value was found to be 0.0117.

Regarding AAAAGGAA, the “PBM E-score” value is -0.0269.

For the sequence AACAGGAT, the “PBM E-score” value is -0.27.

With CCAATGTC, the “PBM E-score” value was -0.25.

As for ACCGGACC, the “PBM E-score” value turned out to be 0.354.

Regarding CATGGCTC, the “PBM E-score” value is -0.0621.

For CCCAGGGC, the “PBM E-score” value is -0.111.

For GGTCAAAA, the “PBM E-score” value is -0.043.

On to CATGTGAA, for which the “PBM E-score” value was -0.0828.

For GATAACAA, the “PBM E-score” value is 0.0139.

Regarding GATGGCCC, the “PBM E-score” value is -0.0196.

In the case of GAAGACTA, the “PBM E-score” value was -0.219.

With GCTACTTA, the “PBM E-score” value is -0.238.

Turning to ATGGCGTA, the “PBM E-score” value was -0.172.

For ACTAACGG, the “PBM E-score” value came out at 0.166.

AGGGTGGC: the “PBM E-score” value was determined as 0.0159.

With CGCTCGAG, the “PBM E-score” value was 0.0191.

As for GCGTCCCC, the “PBM E-score” value is -0.0604.

CATGGTGA: the “PBM E-score” value came out at 0.0525.

Turning to ACTCGCCT, the “PBM E-score” value was -0.178.

In the case of CTACTCCA, the “PBM E-score” value is -0.107.

Consider GACTGAGA, for which the “PBM E-score” value was -0.148.

Turning to ACCGACCT, the “PBM E-score” value was 0.287.

On to CTCCACGC, for which the “PBM E-score” value was -0.0632.

CCCTAGTA: the “PBM E-score” value was determined as 0.0857.

Turning to GTAGGCCA, the “PBM E-score” value was -0.106.

In the case of CAGTGGCG, the “PBM E-score” value was -0.0241.

As to AGATGCTC, the “PBM E-score” value turned out to be 0.0113.

In the case of ACGTGTTG, the “PBM E-score” value is -0.146.

On to CGTCCCAG, for which the “PBM E-score” value is -0.114.

For CGACATAA, the “PBM E-score” value turned out to be 0.0929.

On to GAAGTTGC, for which the “PBM E-score” value was -0.188.

As to ACCGATGG, the “PBM E-score” value is 0.269.

Turning to AGCTATAC, the “PBM E-score” value is 0.202.

In the case of CTCGCAGC, the “PBM E-score” value was -0.161.

For AGTCGGCG, the “PBM E-score” value was 0.239.

As to GAAGTTTA, the “PBM E-score” value was determined as 0.145.

Take ACTCGTGC: the “PBM E-score” value was -0.0294.

On to GAGGGATC, for which the “PBM E-score” value is -0.108.

As to GACGACTC, the “PBM E-score” value was -0.141.

These data come from the supplement of paper PMC3334620.
